Values marked as one replicate rest on one cluster of the flow cell; about a third of the high ones do not repeat.
System: ATP
Experiment: switch fluorescence ratio, 500 uM ATP over buffer (Cy3 cluster intensity, sum of 5 cycles each) (fold (ratio)); higher = stronger signal-on switching upon ATP binding; sequences stand for … in TCGTCGGCAGCGTCAGATGTGTATAAGAGACAGTTTTTTTTTTTTTTTTTTTTTTTTT…TC
Settings: aptamer strand: ATP DNA aptamer (quencher-CACCTGGGGGAGTATTGCGGAGGAAGG + anchor), 100 nM annealed; ATP concentration: 500 uM; one replicate
Method in brief: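 Five buffer/ATP imaging cycles were run on Cy3-labelled switching-strand clusters on a modified Illumina MiSeq flow-cell, with NaOH stripping and re-annealing between cycles. In each cycle, clusters annealed to 100 nM quencher-labelled ATP aptamer were imaged in selection buffer, then after 15 min with 500 uM ATP at 22 °C. Per cluster, the fluorescence ratio is summed target-cycle over summed buffer-cycle Cy3 intensity, averaged per switch-domain sequence. Only clusters within 100-1000 RFU were kept.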
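Also: ATP exposure 15 min at 22 °C before imaging.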

Row | Sequence | switch fluorescence ratio
1 | TATAACTTG | 1.01
2 | TTAAGAGTGT | 0.963
3 | AAAATATATG | 0.987
4 | CCAATTGTTA | 0.988
5 | TCGGTGAGAA | 0.973
6 | TGGAGGGCGA | 0.987
7 | AGTCGATCTG | 1
8 | TTCGTCTGG | 1.02
9 | AGAGAAGTAA | 0.972
10 | GCGAGCGGGG | 0.964
11 | GTCGTCCGTT | 1
12 | AATCGTCAC | 1.05
13 | AGCGGACAGA | 1.04
14 | TGCCTATCTT | 0.977
15 | GATGGGTTCC | 1.03
16 | ATGGTGCATA | 1.01
17 | TTGGAACTGA | 1.02
18 | AACTAGTATG | 0.984
19 | CATTATTTTC | 1.02
20 | AGTATCACTT | 1
21 | GGTAAAGTGT | 0.959
22 | GAGCCAGACA | 0.981
23 | ATGCGTTAGT | 1.06

Row | Sequence | switch fluorescence ratio
24 | TCTGTTTGGA | 0.964
25 | GACCAAATGG | 1.09
26 | TAAAAAATTA | 0.955
27 | TGTAAGTCAA | 1.05
28 | GGTATATGCC | 0.931
29 | GATGACTACC | 1.17
30 | GATCAGGAGT | 0.966
31 | AAATGCGGCA | 1.01
32 | CGTGAAGATA | 1.01
33 | GCGTATATCA | 0.989
34 | TATGGATTG | 0.997
35 | AGCAATGGAA | 1.25
36 | CTTAAGGCAC | 0.988
37 | GGCATCAGAG | 1.01
38 | CTAAAGCAAC | 5.3
39 | CGAGTAGGCC | 1.07
40 | TTCAGGGGAC | 0.986
41 | CGATCTAAGG | 1
42 | CTGTTTGTTC | 0.967
43 | AGCTGTCCCT | 0.977
44 | GGCGCCTAAG | 1.03
45 | CGTCATTCTG | 1.04
46 | TCGGGCTTTC | 1.05

Row | Sequence | switch fluorescence ratio
47 | TACGATCAGT | 1.03
48 | ACTCGATGAT | 0.985
49 | CGCGTAGGGT | 1.02
50 | ATTGATGCGC | 1.04
51 | CCTTTTATGA | 1.02
52 | GGTCATTGGT | 1.01
53 | TAGGGATTGA | 0.998
54 | AAATGAGAT | 1.02
55 | TATCATGTGG | 0.969
56 | AGGTTGTCGC | 1.03
57 | AATAAGGAGG | 0.998
58 | TGATTATGCT | 0.95
59 | CTTCGCCAGG | 4
60 | TTTTACCATA | 1.07
61 | CTTGGTTGAA | 1.03
62 | GTACGCCAGG | 1.32
63 | TACCTAACC | 1.34
64 | CGTGGTGATC | 1.01
65 | TTTACGTTTA | 1.03
66 | GGCCCTGTC | 1.03
67 | AGCTGACAAC | 1.07
68 | AAAAGGAAC | 1.01
69 | GGGGACGGTC | 0.958

Row | Sequence | switch fluorescence ratio
70 | CGTGCGCTCC | 1.63
71 | TTCAGTTATT | 1.04
72 | CGTTGCGGAC | 1.07
73 | TGCGAATGGG | 0.996
74 | CGTAATGCTA | 1.3
75 | TTTCCGGT | 1.02
76 | ATCTTACGC | 1.02
77 | CGCAGATGGT | 1.09
78 | GGTTACGTAA | 1.03
79 | GGGCTTATCT | 0.966
80 | AGCTGCGCGT | 0.998
81 | GCAAGGAAAT | 1
82 | CCCAGGGTAT | 1.42
83 | CCGGTGCGAC | 4.96
84 | GTCACTCTTT | 1.03
85 | TAGATCTGTT | 0.98
86 | GGATTATTGA | 0.963
87 | TTGGGAACAG | 0.988
88 | AACGTTGT | 1.02
89 | CCAACAAAAG | 0.986
90 | ATACCCACGA | 1.25
91 | GGCTACACTA | 1.02
92 | TTTCTATTTA | 1.03

Row | Sequence | switch fluorescence ratio
93 | GTTCTAGCAT | 1.02
94 | TCGTTTTTG | 1.01
95 | TACTGCCCGG | 0.948
96 | GCATAGTGTA | 1.04
97 | TTTACTCACT | 1.18
98 | GAATGCGAAA | 0.985
99 | GGACAAGGG | 1.03
100 | AGTGTTCAGC | 1.02
101 | TCCAAGTCT | 0.974
102 | CCTAGATCCG | 1.23
103 | TTCTGCTTGA | 0.948
104 | TAAAAACAGT | 1.32
105 | GCTGTACGCC | 1.33
106 | CCTTGCATGG | 1.58
107 | CGACTGGTGT | 1.2
108 | ATTCCCCTCG | 1.12
109 | TAACTGTTTC | 1.02
110 | ACTGGTCTGG | 1
111 | AGATACAGAT | 1
112 | TTTTCTGAGC | 0.973
113 | GATCACTGAC | 1.36
114 | GGAATATCGG | 0.957
115 | GCAACTATTT | 1

Row | Sequence | switch fluorescence ratio
116 | TCCGTGTCGA | 1.33
117 | CGTGTTGAAC | 1.01
118 | TGCACATTTT | 1.02
119 | ATCGGGACAA | 1.03
120 | GACATAGGA | 1.02
121 | TGTTATAACG | 0.974
122 | CCAGACGGCC | 1.01
123 | GATGCGGTGC | 1.78
124 | CATGCATTTA | 1.03
125 | TGACACTGGA | 0.999
126 | GCCGCCCGTG | 1.03
127 | TGAACCATAG | 1.01
128 | AACCAGGAAA | 1
129 | AAGCAACCGG | 1.01
130 | GGGACAGGAA | 0.984
131 | GGTGGGTCAC | 0.966
132 | AGTCATTAGC | 1.02
133 | TTAATGATGA | 1.04
134 | GTCAATTTGG | 1.05
135 | TAGTGACAA | 1.03
136 | TGGTATTGGG | 1.1
137 | CGTAATCAAA | 1.04
138 | CACATTCCGG | 1.12

Row | Sequence | switch fluorescence ratio
139 | TGTTTTGTAA | 0.946
140 | GACGGACTCC | 1.5
141 | CTGATCTCGT | 0.975
142 | GGGCCCCGCG | 0.983
143 | TGTTAGAAGG | 1.03
144 | TATCGAATA | 0.963
145 | CCTTGTTGAA | 0.971
146 | GCCCCCAGGG | 1.37
147 | TCCCTCTGCT | 1.39
148 | ACCGTTCATA | 1.07
149 | CTAGGGTGAC | 0.952
150 | AGAAAAGCT | 1.16
151 | GCCATAGCAT | 1.03
152 | ATGGTGAAAG | 1.02
153 | TAACAAGGAA | 1.06
154 | GGTAAAGCCT | 1.06
155 | CATGTGTAGG | 1.05
156 | ACCGCGTCAA | 1.21
157 | CCCCCTTCTA | 0.98

— the supplement of paper PMC10126150
